Reference: PubChem BioAssay AID493208 (National Center for Advancing Translational Sciences (NCATS), 2011)
Out of some 44,000 compounds screened, about 340 (0.77%) were called active. Another 5% or so got no clear call; they are omitted. The call rests on the fitted dose curve; in most records, active means well fitted inhibition curve with a large enough effect; inconclusive means small, poorly fitted or top-dose-only effect; inactive means flat fitted curve, though single readings scatter. Some of the results follow.

Assay: Acumen qHTS Assay for Inhibitors of the mTORC1 Signaling Pathway in MEF (Tsc2-/-, p53-/-) Cells: Sytravon;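 further: plate controls were DMSO for no effect and rapamycin for full effect; nearly all actives have a fitted effect of over 50% in size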
Settings: phospho-rpS6 immunofluorescence/PI, 24 h; series mostly up to 38.3 µM; activity change, negative = inhibition: at the top concentration
Procedure, shortened: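 Tsc2-/-, p53-/- mouse embryonic fibroblasts (empty-vector line) exposed to compound 24 hrs at 37 C, fixed, immunostained for phospho-rpS6 and counterstained with propidium iodide. Acumen laser scanning gives % positive cells from Alexa 488/PI ratio, thresholded using 7.5 nM rapamycin; PI count gives viability.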

Activity change, negative = inhibition, inactive:
Cc1ccc(C(c2sc3nc(-c4ccco4)nn3c2O)N2CCC3(CC2)OCCO3)cc1 (stereo unspecified) -0.307%
CCc1cccc(Nc2ncnc3onc(-c4ccc(F)cc4)c23)c1 -1.12%
COC(=O)c1c(C)nn(-c2ccc(F)cc2)c1-n1cccc1 0.0904%
COc1ccc(OC)c(C2NC(=O)NC(C)=C2C(=O)Nc2ccc(F)cc2)c1 (stereo unspecified) -4.22%
COc1cccc(N2CCN(S(=O)(=O)c3ccc(-c4ccno4)cc3OC)CC2)c1 -0.475%
O=C(CSc1cn(CC(=O)N2CCCCC2)c2ccccc12)Nc1ccc(C(F)(F)F)cc1 -10.5%
COc1ccc(NC(=O)c2ccco2)cc1NC(=O)COc1ccc(Cl)cc1C 3.21%
Cc1ccc(C(=O)NCc2ccc(F)cc2)cc1NC(=O)c1nsc2ccccc12 -2.34%
CCN(CC)CCNC(=O)c1sc2ncccc2c1-n1cccc1 -5.68%
Cc1cc(C)cc(-n2c(SCC(=O)Nc3ccc4c(c3)OCCO4)nc3c([nH]c4ccccc43)c2=O)c1 1.65%
Cn1cc(S(=O)(=O)c2ccccc2)c(=O)c2cc(F)c(N3CCCCCC3)cc21 -4.01%
Cn1c(=O)n(C)c2cc(N3CCCCC3)c(NC(=O)c3ccc(C(C)(C)C)cc3)cc21 4.49%
COc1ccc(CNC(=O)CCc2nc(-c3ccc(C)cc3)no2)c(OC)c1 -5.42%
O=C(Nc1ccc2nc(SCC(=O)N3CCc4ccccc43)sc2c1)c1ccccc1F 0.547%
CC1=C(c2ccc(C)c(C)c2)S(=O)(=O)N=C1N1CCC(C(=O)NC(C)Cc2ccco2)CC1 (stereo unspecified) 2.33%
COc1cc(C(=O)Nc2nonc2-c2ccc(C)c(C)c2)cc(OC)c1OC 4.11%
COc1ccc(C)cc1-n1cnc2cc(C(=O)NC3CCCC3)ccc21 -1.2%
Cc1ccc(NC(=O)c2ccc(NC(=O)N3CCSc4ncccc43)cc2)c(C)c1 -1.81%
CC1Cc2cc(S(=O)(=O)N(Cc3ccccc3)C(C)C)ccc2N1C(=O)C1CCC1 (stereo unspecified) -0.695%
Cc1ccccc1Nc1c(-c2cccs2)nc2cccc(C)n12 15.9%
Cc1cc(C(=O)Nc2c(C)nc3ccccn3c2=O)ccc1[N+](=O)[O-] -12.6%
CCOc1ccc(/C=C/c2nc(C#N)c(NCCc3ccccc3)o2)cc1 -16.4%
O=C(CSc1nc2c([nH]c3ccccc32)c(=O)n1-c1ccc(Cl)cc1)NCC1CCCO1 (stereo unspecified) -0.0552%
CCOC(=O)c1c(C)oc2nc(C)nc(NCc3ccccc3OC)c12 -2.69%
COc1ccccc1NC(=O)Cn1c(=O)n(CCCCCC(=O)NCc2ccccc2)c(=O)c2sccc21 -34.2%
CC(=O)Nc1ccc(S(=O)(=O)NC2(C(F)(F)F)NC(=O)N(CCc3ccc(F)cc3)C2=O)cc1 (stereo unspecified) 12.5%
CCOc1cc(CNC(=O)Cn2c(-c3cccs3)cc3cc(F)ccc32)ccc1OC -11.2%
Cc1ccc(-n2c(SCC(N)=O)nc3c(oc4ccccc43)c2=O)cc1C -3.15%
Cc1ccc(C)c(N2CCN(Cc3csc(C)c3)CC2)c1 -16.7%
Cc1ccc(C)c(NC(=O)Cn2c(=O)n(Cc3ccccc3)c(=O)c3oc4ccccc4c32)c1 -1.98%
CCOCCCn1c(=N)c(C(=O)NCC2CCCO2)cc2c(=O)n3cccc(C)c3nc21 (stereo unspecified) -4.74%
COC(=O)C1=C(c2ccccc2)c2ccccc2S(=O)(=O)N1CC(=O)Nc1ccccc1Cl -1.6%
Cc1cccc(NS(=O)(=O)c2ccc3c(c2)CCN3C(=O)C2CCC2)c1 2.74%
COC(=O)C1CCN(S(=O)(=O)c2cc3c4c(c2)CC(=O)N4CCC3)CC1 0.749%
O=C(c1cccs1)N1CCCc2cc(NS(=O)(=O)c3ccc(F)cc3F)ccc21 9.62%
CCCN(CCC)CCCNC(=O)Cn1cnc2sc(C)c(S(=O)(=O)N3CCC(C)CC3)c2c1=O 7.54%
O=C(Nc1cccc(F)c1)c1ccc(-c2ccccc2)s1 -5.99%
Cc1ccc(S(=O)(=O)c2cn(Cc3ccccc3Cl)c3ccc(F)cc3c2=O)cc1 -0.925%
COc1ccc2c(c1)NC(c1cccnc1)=NC(c1ccc(F)cc1)=N2 2.04%
COc1ccc(Br)cc1CNC(=O)c1ccc2c(c1)N(Cc1ccc(C)cc1)CCS2 -3.63%
Cc1ccc(CN2C(=O)c3ccccc3Sc3ccc(C(=O)OCc4ccco4)cc32)cc1 0.168%
COCCNC(=O)CSc1nc(-c2ccccc2C)nc2c1c(=O)n(C)c(=O)n2C 8.37%
COc1ccc(CCC(=O)NCCc2csc(-c3ccc(Cl)cc3)n2)cc1 1.83%
NS(=O)(=O)c1ccc2nc(NC(=O)COc3ccccc3)sc2c1 3.73%
CCCN(CCC)C(=O)c1cc2c(=O)n3cccc(C)c3nc2n1C 3.59%
CN(Cc1ccco1)S(=O)(=O)c1nnc(NC(=O)c2cccc(Cl)c2)s1 -2.63%
Cc1ccc(NC(=O)c2nc(S(C)(=O)=O)ncc2N(Cc2ccco2)Cc2ccco2)cc1C -0.365%
Cc1ccc(NC(=O)Cn2c(=O)oc3cc(S(=O)(=O)N4CCCCCC4)ccc32)cc1Cl -0.199%
CC(C)C(NS(=O)(=O)c1ccc2c(c1)oc(=O)n2C)C(=O)NCCc1ccc(Cl)cc1 (stereo unspecified) 1.12%
CCOc1ccc(Nc2c(S(=O)(=O)c3ccccc3)cnc3ccccc23)cc1 -1.31%
Cc1ccc2cccc(NC(=O)c3ccc(-c4cccc(Cl)c4)o3)c2n1 -3.08%
Cc1ccc(-c2nnc(Nc3ccc(S(N)(=O)=O)cc3)c3ccccc23)cc1S(=O)(=O)N1CCCCC1 10.7%
CCOCCCNC(=O)C(c1ccc(Cl)cc1)N(Cc1cccs1)C(=O)c1ccc(NC(C)=O)cc1 (stereo unspecified) -17%
Cc1ccc(NC(=O)CN2C(=O)C3(SCC(=O)N3c3ccc(F)c(F)c3)c3ccccc32)c(C)c1 (stereo unspecified) -13.2%
CCC(=O)N1CCc2cc(Br)cc(S(=O)(=O)CCC(=O)N(CC)Cc3ccccc3)c21 6.73%
CC(C)(Oc1ccc(Cl)cc1)C(=O)Nc1nc2ccc(S(C)(=O)=O)cc2s1 -0.38%
CN(C)c1ccc(C(CNC(=O)c2c(F)cccc2Cl)N2CCOCC2)cc1 (stereo unspecified) 19.5%
CC(=O)N1CCc2cc(CNS(=O)(=O)c3ccc(Cl)s3)ccc21 8.24%
COc1ccc(-n2c(=O)c3c4c(sc3n3c(SCCC(C)C)nnc23)COC(C(C)C)C4)cc1 (stereo unspecified) 5.86%
COc1ccc(Cl)cc1NC(=O)NCC1CCN(Cc2ccccc2F)CC1 -15.9%
CCOc1ccc(OCC)c(NS(=O)(=O)c2cc(-c3onc(C)c3C)ccc2OC)c1 -9.1%
COc1cc(OC)cc(C(=O)Nc2ccc3oc(-c4cccc5c(Br)cccc45)nc3c2)c1 6.49%
CN1C(=O)C2(SCC(=O)N2c2ccc(F)cc2)c2ccccc21 (stereo unspecified) -3.71%
CCN1CCN(CCCNC(=O)c2ccc3nc(Cc4ccccc4)oc3c2)CC1 -0.929%
COc1ccc(N2CCN(C(=O)c3cc(S(=O)(=O)N4CCC(C)CC4)cn3C)CC2)cc1 3.4%
CCN(C(=O)C1CCN(c2ncnc3c2nc2n3CCCCC2)CC1)c1cccc(Cl)c1 1.22%
O=C(NCC(c1ccc2c(c1)OCO2)N1CCOCC1)c1c(F)cccc1F (stereo unspecified) 1.55%
COc1ccc(-n2ccnc(NCc3ccc(C)cc3)c2=O)cc1OC -2.52%
Cc1cccc(N2CCN(c3nc4ccc(C)cc4n4cnnc34)CC2C)c1 (stereo unspecified) -3.91%
CCn1cc(C(=O)NCCc2ccc(Cl)cc2)c(=O)c2cc(S(=O)(=O)N3CCC(C)CC3)ccc21 -12.9%
O=C(c1ccc(F)cc1)n1nc(-c2ccccc2)nc1NCc1ccco1 0.55%
O=C(NC1CCCCC1)c1ccc2c(c1)N(Cc1ccc(Cl)cc1)C(=O)c1ccccc1S2=O (stereo unspecified) 0.385%
CCOc1ccccc1N(CC)C(=O)c1noc2c1COc1ccc(C)cc1-2 -1.31%
COc1ccc(N(CC(=O)N2CCN(c3ccccc3F)CC2)S(=O)(=O)c2c(C)n[nH]c2C)cc1 -3.8%
Cc1cccc(NC(=O)CCNS(=O)(=O)c2cccc3nsnc23)c1C 8.5%
Cc1ccc(C)c(Cn2c(=O)cc(C)c3c(C)nn(C)c32)c1 -7.1%
CCn1c(C)c(C)c2cc(C(=O)NCc3cccc(C)c3)ccc21 2.31%
Cc1cccc(C(=O)Nc2ccc(C(=O)OCc3cc(=O)n4nc(CC(C)C)sc4n3)cc2)c1 4.51%
COc1ccc(NC(=O)/C=C\C(=O)N(c2ccc(C(C)C)cc2)C(C(=O)NCc2ccco2)c2ccc(F)cc2)cc1 (stereo unspecified) 0.128%
O=C(c1ccccc1)N(Cc1ccco1)Cc1cccs1 2.53%
COc1cccc(CNC(=O)CCc2c(C)c3cc4c(C)coc4c(C)c3oc2=O)c1 2.04%
CCc1ccccc1NC(=O)CCS(=O)(=O)c1cccc2nonc12 5.21%
COc1ccc(OCC(=O)N2CCN(C(=O)c3cccc(OC)c3)CC2)cc1 3.69%
Cc1ccc(-n2ncc3c(N4CCN(C)CC4)ncnc32)cc1C 11.1%
COc1ccccc1NC(=O)c1sc2nc(C)c(C(=O)Nc3ccc(C)cc3C)c(-c3ccc(C)o3)c2c1N -1.43%
Cc1cccc(NC(=O)Cc2csc(COc3cccc(C)c3)n2)c1 -6.65%
Cc1cccc(C(=O)NCC(=O)OCc2cc(=O)n3nc(C4CC4)sc3n2)c1 2.01%
CCOC(=O)Cn1c(=O)n(C2CCCCC2)c2nc(-c3cccc(OC)c3)nc(C(N)=O)c21 8.2%
Cc1cc(C)cc(NC(=O)CCc2c(C)nc3c4cccnc4nn3c2C)c1 -0.479%
CCOc1ccc(S(=O)(=O)Nc2ccc(-c3ccc(OC)nn3)cc2)cc1 -0.624%
CCC(Sc1nc2nccnc2c(=O)n1Cc1ccc(C)cc1)C(=O)NC1CCCCC1 (stereo unspecified) -13.8%
CCc1nn2c(=O)c(S(=O)(=O)Nc3cccc(F)c3)c(C)nc2s1 0.981%
CCCNC(=O)N1CCN(S(=O)(=O)c2ccc3c(ccn3C)c2)CC1 -4.19%
COc1cc2c(c(OC)c1)C(c1cc(OC)c(OC)c(OC)c1)CC(=O)N2 (stereo unspecified) -0.15%
Cc1c2cnn(-c3ccccc3)c(=O)c2c(C)n1CC(=O)NCc1ccccc1 -1.07%
Cc1cccc(-n2c(SCC(=O)c3ccccc3)nnc2-c2ccc(Br)cc2)c1 -0.43%
